Experimental data as given in the supplement of paper PMC4723716.
± gives the uncertainty stated by the source. Whole data set: some 9,900 compounds, median “viability index relative to DMSO control” near 1, cut for the lowest 2% near 0.85. The list shows a part of the results.

test system: Plasmodium falciparum NF54 stage V gametocytes; assay: viability index relative to DMSO control (fraction); higher = less gametocyte killing; details: 2.5 µM, library set: Broad Institute DOS, incubation time: 72 h
How it was run: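 Gametocytes (P. falciparum NF54, stage V) were treated with compound at 2.5 µM for 72 hr at 37°C in low oxygen, in serum-free medium at 0.75% gametocytemia and 1.25% hematocrit. Counts of 20–70 µm2 red particles, taken from one field per well after MitoTracker Red CMXRos with saponin, were divided by the plate mean of solvent-only wells. This ratio is the viability index.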

Compound	viability index
COc1ccccc1NC(=O)N1CC(=O)N2[C@H](CO)[C@@H](c3ccc(C#CC(C)C)cc3)[C@H]2C1	0.997 ± 0.013
CS(=O)(=O)Nc1ccc2c(c1)[C@@H]1C[C@@H](CC(=O)NCc3cc(F)ccc3F)O[C@H](CO)[C@@H]1O2	1.05 ± 0.0071
CCS(=O)(=O)Nc1ccc2c(c1)C(=O)N(C)C[C@@H](OC)[C@@H](C)CN(CC1CCCCC1)[C@H](C)CO2	1.05 ± 0.016
O=C(O)C[C@@H]1CC[C@@H]2[C@H](COC[C@@H](O)CN2S(=O)(=O)c2ccc(Oc3ccccc3)cc2)O1	1.05 ± 0.026
COc1cccc(NC(=O)Nc2ccc3c(c2)C(=O)N(C)C[C@H](OC)[C@H](C)CN[C@H](C)CO3)c1	1.03 ± 0.07
CN1c2ccc(-c3ccc(F)cc3)cc2[C@H]2[C@H](CCN2C(=O)Cc2cccnc2)[C@@H]1CO	1.099 ± 0.0022
C[C@H]1CCCCO[C@H](CN(C)C(=O)C2CCCCC2)[C@@H](C)CN([C@@H](C)CO)C(=O)c2cc(NS(=O)(=O)c3ccccc3)ccc2O1	0.988 ± 0.11
CCCNC(=O)C[C@H]1CC[C@H]2[C@@H](COC[C@@H](O)CN2C(=O)c2ccc(F)cc2)O1	1.02 ± 0.011
COc1cccc(-c2ccc3c(c2)[C@@H]2[C@@H](CCN2C(=O)c2ccccc2F)[C@@H](CO)N3C)c1	0.921 ± 0.029
COc1ccccc1-c1ccc([C@@H]2[C@H]3CNC[C@@H]2N3S(=O)(=O)c2ccc(F)cc2)cc1	1.08 ± 0.095
O=C1N[C@H](c2ccccc2)COCc2cn(nn2)CC[C@@H]1Cc1cccc(Cl)c1	1.05 ± 0.057
CO[C@H]1CN(C)C(=O)c2cc(NC(=O)NC(C)C)ccc2OC[C@H](C)N(C(=O)CN(C)C)C[C@H]1C	1.12 ± 0.014
COc1ccc(-c2ccc3c(c2)[C@@H]2[C@@H](CCN2C(=O)Nc2ccccc2OC)[C@@H](CO)N3C)cc1	0.93284 ± 8.2e-05
O=C(c1cccc(F)c1)N1CC2(C1)[C@H](c1ccccc1)[C@@H](CO)N2C(=O)C1CCCCC1	1.07 ± 0.08
COc1ccc(CNC(=O)C[C@@H]2C=C[C@@H](NC(=O)c3cccc(F)c3)[C@H](CO)O2)cc1	0.871 ± 0.024
C/C=C/c1cccc(-c2nc(C(=O)NCc3cccc(OC)c3)cc3c2[C@@H](CCO)N([S@](=O)C(C)(C)C)C3)c1	1.07 ± 0.039
COc1cccc(CNC(=O)C[C@H]2CC[C@@H]3[C@H](COc4ccc(NS(=O)(=O)c5ccccc5F)cc4C(=O)N3C)O2)c1	0.957 ± 0.072
COc1ccc2c3c([C@@H](CO)N(CC4CC4)C[C@]33CN(Cc4ccc(F)cc4)C3)n(C)c2c1	1.03 ± 0.081
C[C@@H]1CN([C@H](C)CO)C(=O)CCCn2cc(nn2)CO[C@@H]1CN(C)S(=O)(=O)c1cccc(C#N)c1	1.02 ± 0.038
O=C(NC1CCCCC1)N1[C@@H]2CNC[C@H]1[C@H]2c1ccc(-c2ccccc2F)cc1	1.05 ± 0.035
C[C@@H](NC(=O)C[C@H]1CC[C@H]2[C@@H](COC[C@@H](O)CN2C(=O)Nc2cccc(Cl)c2)O1)c1ccccc1	1.06 ± 0.029
Cc1nn(C)cc1NC(=O)C[C@@H]1CC[C@H]2[C@@H](COc3ccc(NC(=O)c4cccc(F)c4)cc3C(=O)N2C)O1	1.12 ± 0.093
O=C(Nc1ccccc1)N1CC(=O)N2[C@H](CO)[C@@H](c3ccc(C#CC4CCCCC4)cc3)[C@@H]2C1	1.04 ± 0.086
O=C(Nc1cc(F)ccc1F)N1[C@@H]2CNC[C@H]1[C@H]2c1ccc(/C=C/c2ccccc2)cc1	1.056 ± 0.0066

Compound	viability index
Cc1ccccc1-c1ccc2c(c1)O[C@H](CN(C)C(=O)Nc1ccc(C(F)(F)F)cc1)[C@H](C)CN([C@H](C)CO)S2(=O)=O	0.988 ± 0.082
N#C[C@@H]1[C@H](c2ccccc2-c2ccccc2F)[C@H](CO)N1C(=O)Cc1ccccc1	1.09 ± 0.087
Cc1ccc(S(=O)(=O)N2C[C@@H](O)COC[C@H]3O[C@H](CC(=O)NCc4ccc5c(c4)OCO5)CC[C@@H]32)cc1	1.01 ± 0.023
C/C=C/c1cccc(-c2nc(C(=O)NC3Cc4ccccc4C3)cc3c2[C@H](CCO)N(C(C)=O)C3)c1	0.856 ± 0.066
CO[C@@H]1CN(C)C(=O)c2cc(NC(=O)NC(C)C)ccc2OC[C@H](C)N(C(=O)CN(C)C)C[C@@H]1C	1.01 ± 0.063
COc1cccc(CN2[C@@H](CO)[C@@H](c3ccccc3)C23CN(C(=O)C2CCCCC2)C3)c1	1.09 ± 0.058
CO[C@@H]1CC[C@H]2CCOc3ccc(C#N)cc3C(=O)N(C)C[C@@H](c3ccccc3)CC(=O)N(C)C[C@@H]1O2	1.05 ± 0.07
COc1ccc(S(=O)(=O)Nc2ccc3c(c2)C(=O)N([C@H](C)CO)C[C@@H](C)[C@H](CN(C)S(=O)(=O)c2ccc(Cl)cc2)OCCCC[C@@H](C)O3)cc1	0.887 ± 0.072
CC(=O)N1CC2(C1)[C@H](c1ccccc1)[C@@H](CO)N2C(=O)Cc1ccccc1	1.119 ± 0.0026
O=C(C[C@@H]1C[C@@H]2c3cc(NC(=O)Nc4ccccc4F)ccc3O[C@@H]2[C@@H](CO)O1)NCc1ccccn1	0.981 ± 0.041
COc1ccc(S(=O)(=O)N(C)C[C@H]2Oc3ccc(N(C)C)cc3CC(=O)N([C@H](C)CO)C[C@H]2C)cc1	1.06 ± 0.066
CN(C)C(=O)c1ccc(-c2ccc([C@H]3[C@H](CO)N4C(=O)CN(C(=O)CC5CC5)C[C@@H]34)cc2)cc1	0.9587 ± 0.0074
Cc1cccc(S(=O)(=O)N2CC[C@H]3[C@@H](CO)N(C)c4ccc(Br)cc4[C@H]32)c1	1.06 ± 0.012
COc1ccccc1NC(=O)N1[C@H](C#N)[C@H](c2ccccc2)[C@@H]1CO	1.01 ± 0.046
COc1ccc2c3c([C@H](CO)N(Cc4cccc(Cl)c4)C[C@]33CCN(CC3)C(=O)C3CC3)n(C)c2c1	1.02 ± 0.057
O=C(c1ccc2c(c1)OCO2)N1CC[C@@H]2[C@H]1c1cc(C#Cc3ccccc3)ccc1N[C@@H]2CO	1.09 ± 0.036
COCC(=O)N1[C@H](CO)[C@H]2c3ccccc3N(C(=O)Nc3ccccc3Cl)C[C@H]21	0.929 ± 0.089
CCCNC(=O)N1C[C@@H]2N[C@H](C1)[C@H]2c1ccc(-c2ccccc2C)cc1	1.073 ± 0.0012
CO[C@@H]1CC[C@@H]2CCOc3c(C#N)cccc3C(=O)N(C)C[C@@H](OC)[C@H](C)C(=O)N(C)C[C@@H]1O2	1 ± 0.015
COc1ccc(CNC(=O)C[C@H]2CC[C@H](NC(=O)CN(C)C)[C@H](CO)O2)cc1	1.14 ± 0.058
CC(C)[C@@H]1COCn2nncc2CC[C@H](C)C(=O)N1	0.9721 ± 0.0071
Cc1cccc(S(=O)(=O)N2C[C@H]3[C@@H](c4ccccc42)[C@@H](CO)N3CC2CCCC2)c1	1 ± 0.036
CCC(=O)Nc1ccc2c(c1)C(=O)N(C)C[C@@H](OC)[C@@H](C)CN(C(=O)Cc1cccnc1)[C@H](C)CO2	1.06 ± 0.022
C[C@H](CO)N1C[C@H](C)[C@H](CN(C)Cc2ccc3cccnc3c2)OCc2cnnn2CCCC1=O	1.103 ± 0.007

Compound	viability index
COc1cccc(C(=O)Nc2ccc3c(c2)C(=O)N(C)[C@@H]2CC[C@H](CC(=O)N[C@@H](C)c4ccccc4)O[C@@H]2CO3)c1	1.18 ± 0.12
CCC(=O)N1C[C@]2(CCN(CC2)C(=O)Nc2c(C)noc2C)c2c([nH]c3cc(OC)ccc23)[C@@H]1CO	0.903 ± 0.075
C[C@H]1CN([C@@H](C)CO)C(=O)CCCn2nncc2CO[C@@H]1CN(C)Cc1ccc2c(c1)OCCN2C	0.974 ± 0.065
CC(C)NC(=O)Nc1ccc2c(c1)C(=O)N([C@H](C)CO)C[C@@H](C)[C@H](CN(C)C(=O)C1CCCCC1)OCCCC[C@@H](C)O2	1.08 ± 0.016
CN1C(=O)c2cc(NS(=O)(=O)CC(F)(F)F)ccc2OC[C@H]2O[C@@H](CC(=O)NCC3CCCCC3)CC[C@@H]21	1.1 ± 0.038
CN1C(=O)c2cc(NC(=O)c3cscn3)ccc2OC[C@@H]2O[C@@H](CC(=O)NCc3ccc(Cl)c(Cl)c3)CC[C@H]21	0.871 ± 0.12
C[C@H](CO)N1C[C@H](C)[C@H](CN(C)C(=O)[C@@H](Cc2ccccc2)N(C)C)OCc2ccccc2-c2ccccc2C1=O	0.953 ± 0.047
COc1ccc(CNC(=O)C[C@H]2C=C[C@@H](NC(=O)c3cccc(F)c3)[C@H](CO)O2)cc1	1.05 ± 0.017
CC(C)CC#Cc1ccc([C@@H]2[C@H](CO)N3C(=O)CN(C(=O)c4ccccn4)C[C@@H]23)cc1	1.1 ± 0.012
N#C[C@@H]1[C@H](c2ccc(C3=CCCCC3)cc2)[C@H](CO)N1C(=O)CN1CCOCC1	1.14 ± 0.046
CCS(=O)(=O)Nc1ccc2c(c1)C(=O)N(C)[C@@H]1CC[C@H](CC(=O)NCCCN3CCOCC3)O[C@H]1CO2	1.11 ± 0.11
N#C[C@H]1[C@@H](c2ccccc2C2=CCCC2)[C@@H](CO)N1C(=O)C1CCOCC1	0.99 ± 0.092
COc1ccc2c3c([C@@H](CO)N(C[C@]33CN(C)C3)C(=O)C3CCOCC3)n(C)c2c1	0.95 ± 0.12
COc1ccc(C(=O)Nc2ccc3c(c2)C(=O)N(C)[C@@H]2CC[C@H](CC(=O)NCC4CC4)O[C@H]2CO3)cc1	0.937 ± 0.013
C[C@H]1CN([C@@H](C)CO)S(=O)(=O)c2ccc(-c3ccc(F)cc3)cc2O[C@H]1CN(C)Cc1ccccc1C(=O)O	0.942 ± 0.079
CN1CCN(C(=O)C[C@H]2CC[C@@H]3[C@H](COc4ccc(NC(=O)c5cccs5)cc4C(=O)N3C)O2)CC1	1.03 ± 0.034
C[C@H]1CCCCO[C@H](CN(C)Cc2ccncc2)[C@@H](C)CN([C@@H](C)CO)C(=O)c2cc(NS(=O)(=O)c3ccc(Cl)cc3)ccc2O1	1.092 ± 0.0011
COCC#Cc1ccc([C@H]2[C@@H](CO)N3C(=O)CN(C(=O)CN4CCOCC4)C[C@@H]23)cc1	1.09 ± 0.047
COc1ccc(S(=O)(=O)Nc2ccc3c(c2)C(=O)N([C@H](C)CO)C[C@H](C)[C@H](CN(C)S(=O)(=O)c2ccc(Cl)cc2)OCCCC[C@@H](C)O3)cc1	1.08 ± 0.058
O=C(C[C@@H]1C=C[C@H](NS(=O)(=O)c2ccccc2)[C@H](CO)O1)NCCN1CCCCC1	1.15 ± 0.1
COc1cccc(S(=O)(=O)N2CCCCN3[C@H](C2)[C@H](c2ccc(C#CCC(C)C)cc2)[C@@H]3CO)c1	0.9833 ± 0.0041
C[C@H](CO)N1C[C@H](C)[C@H](CN(C)CC2CCCCC2)OCc2cnnn2CCCC1=O	1.02 ± 0.075
